From the supplement of paper PMC11417369
This is one part of the list.

test system: PfSIP2 AP2 domain 1 (GST-tagged); assay: gcPBM binding intensity (ln(normalized median fluorescence intensity)); higher = stronger DNA binding
In short: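 Binding intensity is defined as the maximum Masliner-normalised natural-log median intensity across replicate spots for either probe orientation. It was measured on an Agilent 4 × 180k array of primer-extended double-stranded 36-bp intergenic genomic probes and negative controls, to which GST-tagged P. falciparum DNA-binding domains made in E. coli were applied for 1 h in 1× PBS with 1% milk, 0.2 mg/ml BSA, 0.5% salmon testes DNA and 0.03% Triton X-100. Detection was by Alexa488 anti-GST antibody and scanning at 488 nm.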

Sequence	gcPBM binding intensity (ln)
ATATATTTTAATTGATGTACTTTTTTATGTTAATGA [XGTACX_site4316]	7.03
TTACTTTTAACAAATGTGCGCAGTTATCACACAGAC	7.61
TATATTTTGTTCTGTTGTACTAAAAAAATCTTTATA [XGTACX_site8372]	7.2
ACAAAACAAAAAAACTCACACATATACGGCATGTCA [CACACA_site5608]	6.92
ATTTATTTATTTATATGTACATATTTAAAGAGTTCA [XGTACX_site7631]	7.02
ATATATATATATATATGTACTAAGAATTCTTTAAAA [XGTACX_site8476]	9.68
ACACATAATATGTGTAGTACTTTTTCTTTAACATTA [XGTACX_site1436]	7.1
AACAGTAACATTGAATGTACTTAATTTTAAGAAAAT [XGTACX_site2971]	7.01
TATAAATATAAATATACACACATATATTTATTTATA [CACACA_site6890]	6.88
TTAAAATAAAGAAAATGTACATAAATTAAAATAAAG [XGTACX_site2281]	7.34
TTTTTTTTTTTTTTTATAGTACATTACCAAAAAAAA [CACACA_negctrl_site1197]	6.98
ATTTATTGACTATTTACACACATATTTATTATAATA [CACACA_site1624]	7.14
TGGGTAAACAGACACACACACATATAGATTTATATA [CACACA_site7026]	6.95
AAATTATATGAACATTGTACTTTATATATGTAAGAA [XGTACX_site1611]	7.29
CTTCCAATAAAAAATGCACACATTGAAAATATTGAA [CACACA_site2688]	7.37
ACACACATATATACATGTACATATATATATATATAT [XGTACX_site451]	9.41
TATTTTGTTCTTTCCACACACAAATACAGATATTGT [CACACA_site6097]	7.18
TCTTATCCATATATTACACACTATAAATAGAAATTA [CACACA_site6274]	7.38
ATTTGTATATATTAATGTACACACATGCGTATGTTC [XGTACX_site7579]	6.93
TTTATTTTATTTTCATGTACAAAAGGGGAATAATAA [XGTACX_site2704]	7.36
GATTTATACAAATATGTACACACTAAATATATATTA [CACACA_site455]	7.22
TATTTATCTTTACGCACACACTTGCATGTACAAAAG [CACACA_site4753]	7.45

Sequence	gcPBM binding intensity (ln)
ATATGTATGTATTTATTATTGTGCATTGTATTTATA [CACACA_negctrl_site664]	7.44
AATACCCATATCTTCACACATACATAATAAATTATA [CACACA_site5367]	6.96
TTTGAATATTCATATGCACACAAATTAATATACATA [CACACA_site8040]	7.14
TTTATTTATGTGTGGGTGCATATACGTATGATGTAT	10.6
GTCGTATAATTTTCAGTGCAATATTTGAATAAATGG [GTGCAC_site9404]	8.58
ATTTATTAATTACCATGTATAAAAAATTATATAATA [CACACA_negctrl_site581]	6.85
AGCAACTCAATATATATAAGAATTGTAATATAATAT [GTGCAC_negctrl_site429]	6.71
ATACAATACAAAAACACACACAAAAAAAGAAAAGGA [CACACA_site2156]	7.18
ATATATTTATATATTTGTACATATAATATCTTCTTT [XGTACX_site8504]	6.93
ATAATGTATTTATATATATATATATATTTTAATAAA [CACACA_negctrl_site460]	7.09
AATTATAAAAAAAAAAAAAAAAAAAAAAACTAAATG [CACACA_negctrl_site1379]	6.83
TAATAAATCAATAAATGTACATATATGTATAATTTC [XGTACX_site980]	7
TTTAAAAATATATTCACACAGAAATAGTAAAAGTTA [CACACA_site4587]	6.88
ATTATAACTAAATAAATGATATATAATATTTTATTT [XGTACX_negctrl_site234]	6.79
TATATATAGAAACACACACACACACCCAAGCGTAGC [CACACA_site63]	6.93
ATCTATATCTATAATACACACATAAATGGATATATA [CACACA_site6284]	7.08
AATGTGTACGCACGCACACACAAAAAAATATATATA [CACACA_site2913]	7.24
CAAGCCCTTCTGCTTACACACAGTAATTATTGTGCA [CACACA_site7399]	6.63
TAAATATATTTATAAGCACACACTAATAAACCAACA [CACACA_site8022]	7.09
TTATGCAATTTGTATTGTACATTCATGATATTAATA [XGTACX_site5070]	6.81
AAAACATAAATACATACACACATAATATAGATTAAT [CACACA_site6205]	6.95
TTAAAAATAAATTCATGTACATAATATATATATATA [XGTACX_site7908]	9.25
